Results as given in PubChem BioAssay AID686978 (National Center for Advancing Translational Sciences (NCATS), 2013).
In all, about 420,000 compounds went through this assay and about 64,000 (15%) were called active. Inconclusive means that the source gave no clear call. Such entries were picked first, then a sample of the others. Calls follow the shape of the dose curve; as a rule, active = well fitted inhibition curve with a large enough effect; inconclusive = small, poorly fitted or top-dose-only effect; inactive = flat fitted curve, though single readings scatter. No potency is given beside an inconclusive call; the fits are too rough.

Assay: qHTS for Inhibitors of human tyrosyl-DNA phosphodiesterase 1 (TDP1): qHTS in cells in absence of CPT; also: nearly all actives have a fitted effect of over 55% in size
Settings: DT40 Tdp1-/- hTDP1 cells, no CPT, ATP luminescence, 48 h; activity change, negative = growth inhibition: at 46.2 µM (top of the series) unless noted
Outline: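 Camptothecin absent (DMSO only). Human TDP1-complemented DT40 knockout cells, 400 cells/well, 37 °C for minimum 48 hr; ATP measured via CellTiter-Glo, 30 min dark incubation, luminescence.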
% is scaled to controls: 0 for no effect and ±100 for the full control effect; potency is read from the fitted curve at half-maximal effect; tags tell the direction and shape of the fitted curve.

SMILES	Potency	activity change, negative = growth inhibition
COc1ccc(C(=O)Nc2ccc(SC(F)F)cc2)cc1	inconclusive [inhibitor, single point]	
Cc1cccc(N2CC(C(=O)Nc3ccc4c(c3)OCO4)CC2=O)c1C (centres undefined)		inconclusive: -30.2% [inhibitor]
CCS(=O)(=O)NCc1ccc2c(c1)cc(C)n2C		inactive: 1.16%
COc1ccc2c(c1)CCc1c(C(=O)Nc3cc(C)n(Cc4ccc(Cl)cc4)n3)noc1-2	inconclusive [inhibitor, single point]	
C[C@H]1CN([C@@H](C)CO)C(=O)CCCn2cc(nn2)CO[C@@H]1CN(C)C(=O)c1ccncc1		inactive: 19.9%
CC(=O)c1ccc(N2CCN(C(=O)C3CCCN(S(=O)(=O)c4cnc[nH]4)C3)CC2)cc1 (centres undefined)		inactive: -9.13%
CC(C)(CNC(=O)c1cnn(-c2nccc(-c3cccs3)n2)c1C1CC1)N1CCOCC1		inactive: -17.6%
CC(OC(=O)c1nccnc1N)C(=O)Nc1ccc(S(=O)(=O)N2CCCC2)cc1 (centres undefined)		inactive: 0.658%
COc1ccc(N2CCN(C(=O)c3oc4ccccc4c3NC(=O)Cc3ccc(OC)c(OC)c3)CC2)cc1		inactive: 0.163%
CC(C)c1nc2c(c(=O)c3ccccc3n2C)c(=O)n1-c1ccc(F)cc1	active: 11.6 µM	
Cc1cc(=O)oc2cc(OCC(O)CN3CCc4ccccc4C3)ccc12 (centres undefined)	inconclusive [inhibitor, full curve, poor fit]	
OCCC1CN(Cc2ccc3cc(Cl)ccc3n2)CCN1Cc1ccsc1 (centres undefined)	inconclusive [inhibitor, single point]	
CC1(C)CC(=O)C2=C(C1)Nc1cc3c(cc1C2c1ccc(F)cc1)OCO3 (centres undefined)	inconclusive [inhibitor, single point]	
Cc1ccc(S(=O)(=O)N(C)C[C@H]2OCc3cn(nn3)CCCC(=O)N([C@@H](C)CO)C[C@@H]2C)cc1	inconclusive [inhibitor, single point]	
Nc1ccc(OC(=O)Nc2ccc(O)cc2)cc1	inconclusive [inhibitor, single point]	
CCc1nc(NCCC(C)C)c2nnn(Cc3ccccc3)c2n1	inconclusive [inhibitor, partial curve, poor fit]	
CC(C(=O)O)n1ncc2ccccc2c1=O (centres undefined)	inconclusive [inhibitor, single point]	
CCCOc1ccc(C2C(C(=O)c3ccc(C)o3)=C(O)C(=O)N2CCCn2ccnc2)cc1 (centres undefined)	inconclusive [inhibitor, single point]	
Cc1ccc2nc(N3C(=O)C(O)=C(C(=O)c4ccco4)C3c3ccc(C)o3)sc2c1 (centres undefined)	inconclusive [inhibitor, single point]	
O=C(CSc1nc2ccccc2s1)N1CCCCC1		inactive: -11.1%
CSc1ncccc1C(=O)NC(C)C1CC2CCC1C2 (centres undefined)		inactive: 1.96%
COc1ccc(-c2nc3scc(CCNS(=O)(=O)c4c(C)noc4C)n3n2)cc1	inconclusive [inhibitor, partial curve]	
Cc1ccc(NC(=O)/C=C/c2ccccc2)c(Br)c1		inconclusive: -33.3% [inhibitor]
O=C(NCCCCc1ccccc1)c1ccccc1	inconclusive [inhibitor, single point]	
Cc1cc(-n2c(C)cc(C(=O)COc3ccc(F)c(F)c3)c2C)no1	active: 20.6 µM	

SMILES	Potency	activity change, negative = growth inhibition
S=C(Nc1cc(Cl)ccc1Cl)Nn1cnnc1	inconclusive [inhibitor, partial curve]	
O=C(COC(=O)CSc1ccc2ccccc2c1Br)NC1CC1		inactive: -20%
Cc1ccc(C)c(NC(=O)c2cc(-c3cc(C)ccc3O)n[nH]2)c1	inconclusive [inhibitor, single point]	
Cc1ccc(NC(=O)CN2C(=O)NC3(CCCCC3C)C2=O)cc1S(=O)(=O)N1CCCCC1 (centres undefined)	inconclusive [inhibitor, single point]	
C=CCOc1cccc(C2NC(=O)c3ccccc3O2)c1 (centres undefined)		inactive: -17.6%
CCN1CCc2c(sc(NC(=O)COc3ccccc3)c2C(=O)OC)C1	inconclusive [inhibitor, partial curve, poor fit]	
CN1CCN(C(=O)C(=O)Nc2c3c(nn2-c2ccc(F)cc2)CSC3)CC1		inactive: -3.24%
COC(=O)C1=CN(c2ccc(N3CCOCC3)cc2)C(N)=C(C#N)C1c1ccc(-c2ccccc2)cc1 (centres undefined)	active: 5.8 µM	
Cc1ccc(C(=O)CCC(=O)N2CCC(C(N)=O)CC2)s1		inactive: 8.89%
COc1ccc(C=O)c2[nH]c3c(Cl)ncnc3c12	inconclusive [inhibitor, partial curve]	
CC(=O)c1cccc(NC(=O)C2C3C=CC(C4CC34)C2C(=O)O)c1 (centres undefined)		inactive: -12.9%
O=C(Nc1nc(-c2ccccc2)c(-c2ccccc2)o1)c1ccc(F)cc1	active: 8.2 µM	
CC(=O)CCc1c(C)nc2ccc(C)cc2c1Cl	active: 5.17 µM	
Cc1csc(NC(=O)CSc2nsc(SCC(=O)Nc3nc(C)cs3)c2C#N)n1	active: 12.6 µM	
CC(C)(C)c1ccc(C(=O)c2c[nH]c(C(=O)NCCCn3ccnc3)c2)cc1	inconclusive [inhibitor, partial curve]	
COc1ccc(C(=O)Nc2nc(CC(=O)NCCc3ccccc3)cs2)cc1	inconclusive [inhibitor, partial curve]	
Cc1cccc(NC(=O)CCC(=O)N/N=C/c2ccc(O)cc2O)c1	inconclusive [inhibitor, single point]	
COC(=O)c1[nH]nc(-c2ccccc2)c1-c1ccccc1	inconclusive [inhibitor, single point]	
COc1c(C)cc(S(=O)(=O)NCc2ccco2)c(C)c1C		inactive: -6.46%
O=[N+]([O-])c1cc([N+](=O)[O-])c2n[nH]c(-c3ccccc3)c2c1		inactive: 0.855%
O=C(CCC(=O)N/N=C/c1ccccc1O)NCc1ccccc1	inconclusive [inhibitor, single point]	
O=C(O)c1cccc(NC(=O)c2ccccc2NC(=O)c2ccccc2F)c1	inconclusive [inhibitor, full curve, poor fit]	
CC1C(=O)Nc2ccc(S(=O)(=O)N3CCN(c4ccccc4F)CC3)cc2NC1=O (centres undefined)	active: 20.6 µM	
COc1ccccc1OCC(=O)Nc1cccc(N(C)S(C)(=O)=O)c1		inactive: -18.3%
O=C(NCc1ccco1)C1CCCN(S(=O)(=O)c2ccc(Cl)cc2)C1 (centres undefined)	inconclusive [inhibitor, single point]	

SMILES	Potency	activity change, negative = growth inhibition
COc1ccc(NC(=O)CNC(=O)Cn2cnc3sc(C)c(C)c3c2=O)cc1OC		inactive: 20%
COc1ccc(/C=C2\CCc3ccccc3C2=O)cc1Cn1cccn1	inconclusive [inhibitor, single point]	
CC(Oc1ccccc1)C(=O)Nc1nnc(S(=O)(=O)Nc2ccccc2)s1 (centres undefined)		inactive: -10.4%
CN(C)C(=O)c1ccc(-c2cc(NCc3cccnc3)ncn2)cc1		inactive: 3.7%
CCOc1ccc(Br)cc1/C=N/NC(=O)c1ccncc1	inconclusive [inhibitor, single point]	
CC1(C(=O)Nc2ccccc2)CCN1C(=O)C1(c2ccc(Cl)cc2)CC1 (centres undefined)	active: 3.66 µM	
O=C(Nc1ccc(Cc2ccncc2)cc1)c1ccc(S(=O)(=O)N2CCOCC2)cc1	active: 18.4 µM	
CCOC(=O)c1ccccc1NC(=O)CN(c1ccccc1OCC)S(C)(=O)=O	inconclusive [inhibitor, single point]	
NC(c1ccccc1)c1csc(NC(=O)Nc2ccccc2Oc2ccccc2)n1 (centres undefined)	active: 14.6 µM	
CC(=O)c1cccc(OCC(=O)c2cc(C)n(-c3cc(C)on3)c2C)c1	active: 17.8 µM	
S=c1nc[nH]c2c1ncn2-c1ccc(Cl)cc1		inactive: -12.9%
COc1cccc(CNC(=O)C2CCN(S(=O)(=O)c3ccc4c(c3)NC(=O)C(C)S4)CC2)c1 (centres undefined)	inconclusive [inhibitor, full curve]	
COc1ccc(/C=C\c2onc(C)c2S(=O)(=O)N2CCC(C(=O)Nc3ccccc3OC)CC2)cc1	active: 23.1 µM	
Clc1ccc(-c2nc3ncccn3c2Cl)cc1		inactive: 0.729%
CC(NC(=O)Cc1ccc(S(=O)(=O)N2CCOCC2)s1)c1ccc(Br)cc1 (centres undefined)	inconclusive [inhibitor, single point]	
Cc1ccc(NC(=O)N2CCCN(Cc3ccc(F)cc3)C2)cc1C	inconclusive [inhibitor, single point]	
O=C(COC(=O)c1ccccc1-c1ccccc1[N+](=O)[O-])c1ccccc1	inconclusive [inhibitor, single point]	
Cc1cc(=O)[nH]c(SCCCOc2ccc3c(c2)CCC3)n1	inconclusive [inhibitor, single point]	
COc1nc(N(C)C)nc(N(C#N)CCOC(C)=O)n1		inactive: 17.4%
CC(Sc1nc2ccccc2c(=O)n1CC1CCCO1)C(=O)N(C)Cc1ccccc1 (centres undefined)	inconclusive [inhibitor, single point]	
Cc1ccc(OCCNC(=O)CCNS(=O)(=O)c2ccc(Br)cc2)cc1	inconclusive [inhibitor, single point]	
Cc1ccc(-n2c(O)c(/C=N/c3ncn[nH]3)c3ccccc3c2=O)cc1	inconclusive [inhibitor, single point]	
CCOC(=O)C(=NC1CCS(=O)(=O)C1)NNc1cc(Cl)ccc1Cl (centres undefined)		inactive: -15.7%
CCOC(=O)c1c(NC(=O)CN2CCN(C)CC2)sc(C(=O)Nc2ccccc2)c1C	inconclusive [inhibitor, single point]	
